We go through 57 molecules from paper PMC4336329 (PLoS ONE, 2015).

Molecules are shown by their SMILES. Screen size: about 310,000 compounds; about 2,200 (0.71%) showed an effect of 50% or more. Effects have a minus sign here. The list shows a part of the results.

human ether-à-go-go-related gene (hERG) potassium channel, sequence (Q12809 whole entry, looked up): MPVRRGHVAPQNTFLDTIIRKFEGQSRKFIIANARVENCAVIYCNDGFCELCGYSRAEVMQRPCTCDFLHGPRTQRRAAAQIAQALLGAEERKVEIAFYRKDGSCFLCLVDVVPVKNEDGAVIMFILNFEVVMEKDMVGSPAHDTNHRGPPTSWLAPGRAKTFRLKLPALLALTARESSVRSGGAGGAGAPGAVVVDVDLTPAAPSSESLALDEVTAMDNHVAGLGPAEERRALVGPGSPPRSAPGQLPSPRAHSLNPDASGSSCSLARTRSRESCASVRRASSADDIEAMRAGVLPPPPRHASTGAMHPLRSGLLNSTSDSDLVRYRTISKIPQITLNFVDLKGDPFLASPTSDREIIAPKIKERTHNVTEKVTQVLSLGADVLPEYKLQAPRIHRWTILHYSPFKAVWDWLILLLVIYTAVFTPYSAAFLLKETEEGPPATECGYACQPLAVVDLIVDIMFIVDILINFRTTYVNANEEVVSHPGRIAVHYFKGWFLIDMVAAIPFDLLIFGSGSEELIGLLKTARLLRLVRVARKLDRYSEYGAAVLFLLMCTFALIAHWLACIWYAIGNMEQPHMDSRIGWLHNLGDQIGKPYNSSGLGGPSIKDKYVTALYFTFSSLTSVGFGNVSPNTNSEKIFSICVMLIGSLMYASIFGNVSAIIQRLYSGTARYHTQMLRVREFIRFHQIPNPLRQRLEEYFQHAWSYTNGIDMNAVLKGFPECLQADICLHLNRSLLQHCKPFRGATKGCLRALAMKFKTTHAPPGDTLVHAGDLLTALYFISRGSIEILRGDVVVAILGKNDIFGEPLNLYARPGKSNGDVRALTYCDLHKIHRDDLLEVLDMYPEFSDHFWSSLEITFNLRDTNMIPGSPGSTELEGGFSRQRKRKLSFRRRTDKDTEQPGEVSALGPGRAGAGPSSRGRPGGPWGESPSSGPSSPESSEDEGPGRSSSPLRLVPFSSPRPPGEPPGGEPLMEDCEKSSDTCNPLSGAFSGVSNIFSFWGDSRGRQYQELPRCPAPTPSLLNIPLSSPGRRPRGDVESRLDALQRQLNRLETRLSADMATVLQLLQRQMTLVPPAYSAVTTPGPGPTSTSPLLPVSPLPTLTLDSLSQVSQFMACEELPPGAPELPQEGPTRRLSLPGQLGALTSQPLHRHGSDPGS

This test has as its target human ether-à-go-go-related gene (hERG) potassium channel (human, UniProt Q12809). Put plainly: primary screen, population patch clamp on CHO cells stably expressing hERG.
As to `CC(NC(=O)c1ccc(S(C)(=O)=O)cc1)c1cccc2ccccc12` (stereo not drawn), the “hERG current change (%, negative = inhibition) at 1uM” value is 4.13%.

As to `CN(C)S(=O)(=O)c1cccc(NC(=O)CSc2nc3ccccc3[nH]2)c1`, the “hERG current change (%, negative = inhibition) at 1uM” value was found to be 12.2%.

Consider `CN(C)C1N(C(=O)c2ccccc2)N=C2c3ccccc3S(=O)(=O)N21` (stereo not drawn), for which the “hERG current change (%, negative = inhibition) at 1uM” value is reported as 12.9%.

On to `C=CCn1cc(/C=C2/NC(=O)NC2=O)c2ccccc21`, for which the “hERG current change (%, negative = inhibition) at 1uM” value is 12.6%.

For the molecule `Cc1ccc(OCc2cc(C(=O)N(CCO)Cc3cccs3)no2)cc1C`, the “hERG current change (%, negative = inhibition) at 1uM” value is given as 11.9%.

As for `Cc1cc(C)nc(Nc2n[nH]c(COc3ccc4ccccc4c3)n2)n1`, the “hERG current change (%, negative = inhibition) at 1uM” value stood at 5.27%.

`NC(=O)c1ccc(C(F)(F)F)n(Cc2c(Cl)cccc2Cl)c1=O`: the “hERG current change (%, negative = inhibition) at 1uM” value stood at 22.9%.

On to `OCCCNc1ncnc2sc3c(c12)CCN(Cc1ccccc1)C3`, for which the “hERG current change (%, negative = inhibition) at 1uM” value worked out at 7.54%.

With `CCc1ccc(C(C(=O)NCCOC)N(C(=O)Cn2nnc3ccccc32)c2cccnc2)cc1` (stereo not drawn), the “hERG current change (%, negative = inhibition) at 1uM” value is given as -4.66%.

With `CC(C)(C)N1[C@@H](CC(=O)O)c2cc(C(F)(F)F)ccc2S1(=O)=O`, the “hERG current change (%, negative = inhibition) at 1uM” value came to 12%.

For `C=CCNC(C(=O)Nc1cccc(OC)c1)c1ccccc1` (stereo not drawn), the “hERG current change (%, negative = inhibition) at 1uM” value was 13.3%.

`N#C/C(=C\C=C\c1ccccc1)C(=O)N1CCCC1`: the “hERG current change (%, negative = inhibition) at 1uM” value is 12.3%.

For `N#Cc1ccccc1NC(=O)c1ccc2c(c1)OCO2`, the “hERG current change (%, negative = inhibition) at 1uM” value is -1.24%.

Consider `CCCCn1c(-c2c(Cl)c(C)nn2C)n[nH]c1=S`, for which the “hERG current change (%, negative = inhibition) at 1uM” value was found to be 3.51%.

`O=C(O)CCCn1cc(NC(=O)COc2ccc([N+](=O)[O-])cc2)cn1`: the “hERG current change (%, negative = inhibition) at 1uM” value stood at 10.1%.

For the molecule `CCC(=O)N1CCN(c2ccccc2NC(=O)COc2ccccc2Cl)CC1`, the “hERG current change (%, negative = inhibition) at 1uM” value is given as 4.56%.

As for `CC1CCCN(CCOCCOc2ccccc2-c2ccccc2)C1.O=C(O)C(=O)O` (stereo not drawn), the “hERG current change (%, negative = inhibition) at 1uM” value is -42.6%.

Turning to `N=c1c2c3c(sc2ncn1CCCN1CCOCC1)CCCCC3`, the “hERG current change (%, negative = inhibition) at 1uM” value is reported as -19.8%.

For `Cc1ccc(/C=C/c2ccc(=O)n(Cc3ccc(Cl)cc3Cl)n2)cc1`, the “hERG current change (%, negative = inhibition) at 1uM” value is recorded as 4.3%.

Regarding `Cc1nn(C)c(C)c1S(=O)(=O)N(CC(=O)N1CCc2ccccc2C1)c1ccc(C(C)C)cc1`, the “hERG current change (%, negative = inhibition) at 1uM” value was determined as 7.85%.

With `Cc1ccc(C(=O)O/N=C2\CCSc3ccc(C)cc32)cc1`, the “hERG current change (%, negative = inhibition) at 1uM” value was -3.19%.

As for `N#CC(C(=O)CCN1C(=O)C2CC=CCC2C1=O)c1nc2ccccc2[nH]1` (stereo not drawn), the “hERG current change (%, negative = inhibition) at 1uM” value stood at 15.8%.

Regarding `Cc1nn(-c2ccccc2)c(C)c1-c1nnc(-c2c(C)nn(-c3ccccc3)c2C)o1`, the “hERG current change (%, negative = inhibition) at 1uM” value amounted to 11.9%.

On to `CNS(=O)(=O)c1cnccc1N1CCN(c2cccc(Cl)c2)CC1`, for which the “hERG current change (%, negative = inhibition) at 1uM” value was 8.1%.

For the molecule `CSc1ccccc1NC(=O)c1ccc(N2CCCC2=O)cc1`, the “hERG current change (%, negative = inhibition) at 1uM” value is on record as -0.834%.

In the case of `CN1C(=O)Cc2cc(S(=O)(=O)N3CCN(c4cccc(C(F)(F)F)c4)CC3)ccc21`, the “hERG current change (%, negative = inhibition) at 1uM” value is reported as 16.2%.

As to `Cn1c(NC(=O)CCC2CCCCC2)cc(=O)n(C)c1=O`, the “hERG current change (%, negative = inhibition) at 1uM” value was found to be 16.7%.

As to `CC(CN1CCCC1)OC(=O)c1cccc(F)c1.Cl` (stereo not drawn), the “hERG current change (%, negative = inhibition) at 1uM” value is reported as 13.2%.

Turning to `CCN(CC)c1ccc(/C=C(\C#N)c2ccccn2)cc1`, the “hERG current change (%, negative = inhibition) at 1uM” value came to 3.45%.

In the case of `CC1SCC(=NOCc2c(Cl)cccc2Cl)CS1` (stereo not drawn), the “hERG current change (%, negative = inhibition) at 1uM” value is on record as 17.2%.

Turning to `COc1ccc([N+](=O)[O-])cc1NC(=O)c1ccccc1SC`, the “hERG current change (%, negative = inhibition) at 1uM” value was -6.85%.

On to `COc1ccc(N(CC(=O)NCc2ccccc2C)S(=O)(=O)c2ccccc2[N+](=O)[O-])c(OC)c1`, for which the “hERG current change (%, negative = inhibition) at 1uM” value came to 8.12%.

Turning to `CN1CCN(c2nc3ccccn3c(=O)c2/C=C(\C#N)S(=O)(=O)c2ccccc2)CC1`, the “hERG current change (%, negative = inhibition) at 1uM” value amounted to 1.05%.

In the case of `COc1cccc(NC(=O)C2CC(=O)N(Cc3ccco3)C2)c1` (stereo not drawn), the “hERG current change (%, negative = inhibition) at 1uM” value was found to be 4.31%.

For the molecule `Cc1nc2ccccc2c(=O)n1/N=C/c1ccc(N(C)C)cc1`, the “hERG current change (%, negative = inhibition) at 1uM” value is recorded as 10.3%.

As for `CC1=C[C@H](C)[C@H](c2c(F)cccc2Cl)CC1=O`, the “hERG current change (%, negative = inhibition) at 1uM” value worked out at 8.46%.

As for `COc1ccc(C(=O)Nn2c(C)ccc2C)cc1OC`, the “hERG current change (%, negative = inhibition) at 1uM” value is recorded as -10.7%.

Regarding `O=C(Nc1ccc2nc3n(c(=O)c2c1)CCCC3)c1cncc(Br)c1`, the “hERG current change (%, negative = inhibition) at 1uM” value is -3.39%.

Take `COc1cc2c(cc1NC(C)=O)CCCC2`: the “hERG current change (%, negative = inhibition) at 1uM” value is on record as 12.1%.

As to `Cc1cc2nc(-c3ccc(SCC(=O)Nc4ccc(S(=O)(=O)NC5CC5)cc4)nc3)[nH]c2cc1C`, the “hERG current change (%, negative = inhibition) at 1uM” value amounted to 10.4%.

As to `COc1ccc(C(=O)NCCc2nnc(SCC(=O)Nc3ccccc3F)n2C)cc1`, the “hERG current change (%, negative = inhibition) at 1uM” value was 7.12%.

Regarding `Nc1nc(F)cc(NCc2ccccc2)n1`, the “hERG current change (%, negative = inhibition) at 1uM” value is recorded as 7.98%.

On to `O=C(CN(Cc1ccc(Cl)cc1)C(=O)c1csnn1)NCc1ccccc1`, for which the “hERG current change (%, negative = inhibition) at 1uM” value was -27.4%.

For the molecule `CCN1CCN(C(=O)C2(NC(=O)Nc3cccc(F)c3)CCCCC2)CC1`, the “hERG current change (%, negative = inhibition) at 1uM” value is 4.91%.

`COc1coc(C(O)C[N+](=O)[O-])cc1=O` (stereo not drawn): the “hERG current change (%, negative = inhibition) at 1uM” value is recorded as 1.07%.

Consider `NC(=O)c1nsc(C(=O)N(c2ccc(F)cc2)C(C(=O)NCC2CCCO2)c2c[nH]c3ccccc23)c1N` (stereo not drawn), for which the “hERG current change (%, negative = inhibition) at 1uM” value was 9%.

For `O=C(Oc1ccc2cccc(OC(=O)N3CCOCC3)c2c1)N1CCOCC1`, the “hERG current change (%, negative = inhibition) at 1uM” value is 15.7%.

In the case of `CCN(CC)CCCNC(=O)c1cc(-c2ccc3c(c2)OCO3)on1`, the “hERG current change (%, negative = inhibition) at 1uM” value is given as 5.38%.

As for `O=C(CSc1ccc(Br)cc1)NCC1CCCO1` (stereo not drawn), the “hERG current change (%, negative = inhibition) at 1uM” value worked out at 11.9%.

With `Cc1cc(-c2nnc(CCC(=O)N(C)CCc3ccccc3)o2)no1`, the “hERG current change (%, negative = inhibition) at 1uM” value is recorded as 10.8%.

On to `COc1cccc(CN2C(=O)CCC2(C)C(=O)NC2CCCCCC2)c1` (stereo not drawn), for which the “hERG current change (%, negative = inhibition) at 1uM” value came to 3.35%.

For `Cc1ccccc1C(=O)NC1CC2CCC(C1)N2Cc1ccccc1` (stereo not drawn), the “hERG current change (%, negative = inhibition) at 1uM” value is on record as 7.57%.

Consider `O=C(CN1CCN(Cc2ccccc2)CC1)Nc1nnc(C(F)(F)F)s1`, for which the “hERG current change (%, negative = inhibition) at 1uM” value turned out to be 17.7%.

For the molecule `CC(NC(=O)Nc1ccc([N+](=O)[O-])cc1)C(c1ccccc1)N1CCOCC1` (stereo not drawn), the “hERG current change (%, negative = inhibition) at 1uM” value was 12.7%.

In the case of `O=C(Nc1cccnc1Cl)c1cc(-c2cccc(Cl)c2)on1`, the “hERG current change (%, negative = inhibition) at 1uM” value was 8.28%.

With `CC(C)Cc1nnc(NC(=O)CCC(=O)N2CCN(c3ccccc3F)CC2)s1`, the “hERG current change (%, negative = inhibition) at 1uM” value is listed as 17%.

As for `CCn1c(CSc2nc3ccccc3s2)nnc1SCC(N)=O`, the “hERG current change (%, negative = inhibition) at 1uM” value stood at 3.1%.
